Some of the results follow. Sequences were assembled here from the parent chain. Inactive controls read about 0.05.
B1: TEV protease; numbered along this chain (parent)
chain: MGESLFKGPRDYNPISSSICHLTNESDGHTTSLYGIGFGPFIITNKHLFRRNNGTLVVQSLHGVFKVKDTTTLQQHLVDGRDMIIIRMPKDFPPFPQKLKFREPQREERICLVTTNFQTKSMSSMVSDTSCTFPSGDGIFWKHWIQTKDGQCGSPLVSTRDGFIVGIHSASNFTNTNNYFTSVPKNFMELLTNQEAQQWVSGWRLNADSVLWGGHKVFMVKPEEPFQPVKEATQL

Variants of: B1
Assay: raw area under fraction-flipped curve 0-4 h after induction (AUC4h, not background-subtracted), DNA-recorder readout of cleavage of the substrate (dimensionless); higher = more cleavage of the substrate by the protease variant
Details: temperature: 34 °C; time window: 0-4 h after rhamnose induction
Method: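 In vivo DNA recorder in E. coli TOP10(DE3) ΔrhaA at 34 °C. Each TEVp single-site mutant (parent TEVp 0) is paired with a single-site variant of the 7-mer TEVs (canonical ENLYFQ|S). The substrate sits between flexible linkers in a Bxb1-sfGFP-TEVs-SsrA fusion, so cleavage stabilises Bxb1 and speeds flipping of a recombination array, read by NGS. The value is the raw area under the fraction-flipped curve over 0-4 h after rhamnose induction (AUC4h), with ≥20 reads per time point. It is not background-subtracted; inactive controls average about 0.047.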
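Also: Bxb1 expression induced with 0.2% (w/v) L-rhamnose at OD600 near 0.5, cultures sampled hourly, flipped fraction per protease–substrate barcode pair counted by paired-end Illumina sequencing.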

Row | Variant | area with substrate ENLYFQA | area with substrate ENLYFQD | area with substrate ENLYFQF | area with substrate ENLYFQG | area with substrate ENLYFQH | area with substrate ENLYFQI | area with substrate ENLYFQK | area with substrate ENLYFQL | area with substrate ENLYFQM | area with substrate ENLYFQN | area with substrate ENLYFQQ | area with substrate ENLYFQS | area with substrate ENLYFQT | area with substrate ENLYFQY | area with substrate ENLYFQC | area with substrate ENLYFQP | area with substrate ENLYFQR | area with substrate ENLYFQW | area with substrate ENLYFQV
1 | K230I | 0.0896 | 0.0818 | 0.107 | 0.0894 | 0.0599 | 0.0687 | 0.0631 | 0.0578 | 0.0711 | 0.0758 | 0.023 | 0.0912 | 0.0618 | 0.0764 | – | – | – | – | –
2 | K230P | 0.0959 | 0.0676 | 0.101 | 0.0707 | 0.0687 | 0.061 | – | 0.0658 | 0.0912 | 0.065 | – | 0.105 | 0.0505 | – | 0.116 | 0.027 | 0.0501 | – | –
3 | E231Q | 0.107 | 0.0734 | – | 0.0973 | 0.0533 | 0.0554 | – | 0.0527 | 0.0936 | 0.072 | – | 0.102 | 0.0642 | 0.0741 | 0.0919 | – | – | 0.0682 | –
4 | Q234L | 0.09 | 0.0739 | 0.0574 | – | – | 0.0584 | 0.0835 | 0.0718 | – | – | – | 0.0937 | 0.069 | 0.0702 | 0.104 | – | – | 0.0389 | 0.0384
5 | S4T | – | 0.0881 | 0.116 | 0.107 | 0.102 | 0.061 | 0.0747 | 0.0739 | 0.182 | 0.094 | – | 0.134 | 0.0689 | 0.0709 | 0.16 | – | 0.0531 | – | 0.0591
6 | F6M | – | – | 0.0669 | 0.118 | – | 0.0709 | 0.0654 | 0.0456 | 0.0942 | 0.072 | – | 0.102 | 0.0891 | 0.0832 | 0.119 | 0.0531 | 0.0577 | – | –
7 | R10E | – | – | 0.0697 | 0.0683 | – | 0.0628 | – | 0.0618 | 0.0553 | 0.0771 | 0.0642 | 0.0916 | – | – | 0.0979 | – | 0.0651 | 0.0662 | –
8 | D11G | – | 0.0685 | – | 0.141 | 0.0675 | 0.0678 | 0.0715 | 0.064 | 0.116 | 0.0834 | 0.0768 | 0.0993 | 0.0628 | 0.0839 | 0.114 | 0.0701 | 0.0597 | 0.062 | 0.0459
9 | D11N | – | 0.0672 | 0.0791 | 0.101 | 0.0794 | 0.0525 | 0.0613 | 0.055 | 0.0715 | 0.072 | – | 0.0947 | 0.0653 | 0.0696 | 0.127 | 0.0647 | 0.0592 | 0.0638 | 0.0402
10 | N13Y | – | 0.0709 | – | 0.112 | – | 0.0503 | 0.0604 | – | – | 0.0738 | 0.0733 | 0.0988 | 0.0635 | 0.114 | 0.1 | – | 0.0509 | 0.0666 | 0.0663
11 | I15H | – | – | – | 0.121 | 0.0705 | 0.0628 | 0.0665 | 0.0577 | 0.1 | 0.076 | 0.0736 | 0.102 | 0.0649 | – | 0.115 | 0.0495 | 0.0605 | 0.0701 | –
12 | S18W | – | – | – | – | – | 0.0569 | 0.0599 | 0.0585 | 0.107 | – | – | 0.0748 | 0.0593 | – | 0.0771 | 0.0713 | 0.074 | 0.0564 | 0.0664
13 | H21L | – | 0.0607 | – | 0.0992 | – | 0.0701 | 0.0552 | 0.0613 | 0.0898 | 0.0811 | – | 0.0931 | 0.0536 | 0.106 | 0.085 | 0.0639 | – | 0.0674 | 0.0595
